The list shows a part of the results. Shown are side measurements of this screen, not its main read-out; they come without a call.

Experiment in all cases: Primary Screen for Target Class Profiling of Small Molecule Inhibitors of Methyltransferases
For assay [1], the target named is Glycine N-methyltransferase (Homo sapiens) (UniProt Q14749). As to conditions: purified enzyme, MTase-Glo SAH luminescence; measured here: GNMT inhibition; at 40 µM; stronger effect = lower value. The gist of the method: (§1)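 Each enzyme was reacted with SAM and its substrate, with compounds tested once at 40 uM; SAH formed was read by MTase-Glo luminescence.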
In assay [2] the target is Guanidinoacetate N-methyltransferase (Homo sapiens) (UniProt Q14353). As to conditions: purified enzyme, MTase-Glo SAH luminescence; measured here: GAMT inhibition; at 40 µM; stronger effect = lower value. An outline of the steps:
as §1

The target in assay [3] is Histamine N-methyltransferase (Homo sapiens) (UniProt P50135). As to conditions: purified enzyme, MTase-Glo SAH luminescence; measured here: HNMT inhibition; at 40 µM; stronger effect = lower value. The gist of the method:
as §1

Assay [4] concerns the target Nicotinamide N-methyltransferase (Homo sapiens) (UniProt P40261). The conditions noted are these: purified enzyme, MTase-Glo SAH luminescence; measured here: NNMT inhibition; at 40 µM; stronger effect = lower value. An outline of the steps:
as §1

In assay [5] the target is Phenylethanolamine N-methyltransferase (Homo sapiens) (UniProt P11086). The conditions noted are these: purified enzyme, MTase-Glo SAH luminescence; measured here: PNMT inhibition; at 40 µM; stronger effect = lower value. The gist of the method:
as §1
% is scaled to controls: 0 for no effect and ±100 for the full control effect.

Consider `Cc1ccccc1C(=O)N1CCC(N2CCCNC2=O)CC1`, for which the activity change, negative = inhibition is -4.68% in assay [1]; -9.39% in assay [2]; -1.1% in assay [3]; -16.4% in assay [4]; -12.5% in assay [5].

As for `COc1ccc(N2Cc3c(NCCc4ccccc4F)ncnc3N(C)CC2=O)cc1`, the activity change, negative = inhibition in assay [1] is -10.3%; in assay [2], -11%; in assay [3], -6.62%; in assay [4], -19.5%; in assay [5], -6.6%.

As for `Cc1cc2c(cc1S(=O)(=O)Nc1ccc(F)c(Cl)c1)n(C)c(=O)n2C`, the activity change, negative = inhibition in assay [1] was 10.4%; in assay [2] it was 0%; in assay [3] it was 5.01%; in assay [4], -6.15%; in assay [5], 3.1%.

With `CCOc1ccc(NC(=O)Cn2nc3n(c2=O)CCN(Cc2ccccc2C)C3=O)cc1`, the activity change, negative = inhibition is -4.81% in assay [1]; 0.055% in assay [2]; -0.664% in assay [3]; -3.81% in assay [4]; -0.735% in assay [5].

Turning to `CC1NC(=O)C(Cc2c[nH]c3ccccc23)NC1=O` (stereo not drawn), the activity change, negative = inhibition in assay [1] is -0.037%; in assay [2], 1.33%; in assay [3], 9.38%; in assay [4] it was -12.3%; in assay [5], -5.62%.

`c1ccc(C(NCCNC(c2ccccc2)c2ccccc2)c2ccccc2)cc1`: the activity change, negative = inhibition in assay [1] was -4.94%; in assay [2] it was 5.59%; in assay [3] it was -1.01%; in assay [4], -3.68%; in assay [5], 5.51%.

With `CCCn1c(=O)c2cc(Cl)ccc2n2c(SCc3cccc(OC)c3)nnc12`, the activity change, negative = inhibition in assay [1] was -12.9%; in assay [2], 1.6%; in assay [3], 1.44%; in assay [4] it was -12.8%; in assay [5], -1.43%.

Take `CCN(CC)C(=O)[C@@H]1CCC[C@@H](NC2CCOCC2)CN(C)C(=O)C1`: the activity change, negative = inhibition in assay [1] was -6.09%; in assay [2], -6.74%; in assay [3], -2.37%; in assay [4], -13.7%; in assay [5], -8.23%.

On to `CC(=O)O[C@H]1C[C@@]2(C)[C@@H](CC[C@H]3[C@@]4(C)C=CC(=O)[C@@H](C)[C@@H]4[C@H](O)C(=O)[C@@]32C)/C1=C(/CCC=C(C)C)C(=O)O`, for which the activity change, negative = inhibition is 0% in assay [1]; -5.72% in assay [2]; 8.45% in assay [3]; -21.1% in assay [4]; -9.5% in assay [5].

`CNC(=O)c1noc(CN2CCCC(CCc3ccccc3F)C2)n1` (stereo not drawn): the activity change, negative = inhibition in assay [1] was -8.19%; in assay [2], -7.29%; in assay [3] it was -6.44%; in assay [4], -17.4%; in assay [5], 5.23%.

Consider `COc1ccc(N2C(=O)c3ccc(-c4ccco4)n3CC2(C)C(=O)NCc2ccccc2)cc1OC` (stereo not drawn), for which the activity change, negative = inhibition in assay [1] was -38%; in assay [2], 2.04%; in assay [3], 5.18%; in assay [4] it was -1.32%; in assay [5], -2.93%.

Regarding `CN(C)C(=O)CO[C@H]1COCCN(Cc2ccccn2)C1`, the activity change, negative = inhibition is -5.07% in assay [1]; -1.22% in assay [2]; -5.15% in assay [3]; -4.12% in assay [4]; 11.8% in assay [5].

Take `O=C(N[C@@H]1CCCc2c1cnn2-c1ccc(F)cc1F)c1ccccn1`: the activity change, negative = inhibition in assay [1] was 1.83%; in assay [2], 7.09%; in assay [3], 4.51%; in assay [4] it was -13.5%; in assay [5], -4.68%.

As to `C[C@@H]1C(=O)OC2[C@H](O)[C@]34[C@H]5C[C@@H](C(C)(C)C)[C@]36[C@@H](OC(=O)[C@@H]6O)O[C@@]4(C(=O)O5)[C@]21O` (stereo partly drawn), the activity change, negative = inhibition in assay [2] was -9.33%; in assay [4], -16.8%; in assay [5], -4.65%.

For `COc1cc2c(cc1OC)[C@@H]1[C@H](O)[C@@H](OC)C=C3CCN(C2)[C@H]31`, the activity change, negative = inhibition in assay [1] was 1.21%; in assay [2], -3.59%; in assay [3], 9.9%; in assay [4], -20.8%; in assay [5] it was -0.685%.

For the compound `Cn1c2c(c3ccccc31)C(C(=O)NCc1ccccc1)N(Cc1ccco1)C(=O)CS2` (stereo not drawn), the activity change, negative = inhibition in assay [1] was 2.66%; in assay [2], 0%; in assay [3], 2.98%; in assay [4], -1.56%; in assay [5] it was 0.533%.

Consider `CCOc1ncccc1C(=O)N[C@H](c1cncc(OC)c1)C1CC(O)C1` (stereo partly drawn), for which the activity change, negative = inhibition in assay [1] was -3.88%; in assay [2], -1.49%; in assay [3], -0.624%; in assay [4] it was -6.86%; in assay [5], 12.5%.

With `Cc1nnc2n1C(C)CN(C(=O)Cn1nnc(-c3ccc(F)cc3)n1)C2` (stereo not drawn), the activity change, negative = inhibition is -5.65% in assay [1]; -13.5% in assay [2]; -2.51% in assay [3]; -10.3% in assay [4]; -4.89% in assay [5].

In the case of `COc1c(OCCCN2CCOCC2)ccc2c3n(c(=NC(=O)c4cnc(N)nc4)nc12)CCN3`, the activity change, negative = inhibition in assay [1] was -0.878%; in assay [2] it was -1.96%; in assay [3] it was -0.163%; in assay [4] it was -11.7%; in assay [5], -8.14%.

`COc1ccc(N2C(=O)c3cc(-c4cccs4)nn3CC2(C)C(=O)NC2CCCCC2)cc1` (stereo not drawn): the activity change, negative = inhibition in assay [1] is -4.73%; in assay [2] it was 3.72%; in assay [3], 1.23%; in assay [4], 5.34%; in assay [5], -3.05%.

On to `COc1ccc(-c2cc3n(n2)CC(C)(C(=O)NC2CCCCC2)N(CCC(C)C)C3=O)cc1` (stereo not drawn), for which the activity change, negative = inhibition in assay [1] was -0.167%; in assay [2], 0%; in assay [3] it was 3.2%; in assay [4] it was -3.57%; in assay [5], -4.5%.

On to `O=C(CCc1nnc2n(CCc3ccccc3)c(=O)c3ccccc3n12)NCCCN1CCOCC1`, for which the activity change, negative = inhibition in assay [1] was -3.06%; in assay [2], -13.9%; in assay [3], 5.51%; in assay [4] it was 14.2%; in assay [5], 2.56%.

Regarding `CCc1ccc(CN2CCCC23Cc2ccccc2CNC3=O)s1` (stereo not drawn), the activity change, negative = inhibition in assay [1] is -7.64%; in assay [2], -6.95%; in assay [3], -9.07%; in assay [4] it was -26.3%; in assay [5], -15.7%.

Regarding `Cc1ccccc1N1C(=O)c2cc3sccc3n2CC1(C)C(=O)NC1CCCCCC1` (stereo not drawn), the activity change, negative = inhibition in assay [1] is 2.6%; in assay [2] it was 1.83%; in assay [3], 2.48%; in assay [4], -2.36%; in assay [5], -3.1%.

With `O=C(Cn1c(=O)oc2cc(S(=O)(=O)N3CCCC3)ccc21)Nc1ccccc1Br`, the activity change, negative = inhibition is 0.772% in assay [1]; 3.83% in assay [2]; 0.413% in assay [3]; -3.21% in assay [4]; -3.05% in assay [5].

Turning to `CC1=NOC2(CCN(Cc3ccc(N(C)C)cc3)CC2)C1`, the activity change, negative = inhibition is -6.32% in assay [1]; -7.68% in assay [2]; -7.33% in assay [3]; -8.46% in assay [4]; -13.3% in assay [5].

Regarding `CCc1cc2c(cc3n2CC(C)(C(=O)NC2CCCCCC2)N(CCCOC)C3=O)s1` (stereo not drawn), the activity change, negative = inhibition in assay [1] worked out at 5.89%; in assay [2], 27.8%; in assay [3], 7.93%; in assay [4], 0.387%; in assay [5], 2.24%.

For `Cc1noc([C@@H](C)NCc2cccc(Cl)c2)c1C(=O)O`, the activity change, negative = inhibition is -0.122% in assay [1]; -0.881% in assay [2]; 2.54% in assay [3]; 1.21% in assay [4]; 0.524% in assay [5].

Regarding `CCNC(=O)C1OC(n2cnc3c(N)nc(NCCc4ccc(CCC(=O)O)cc4)nc32)C(O)C1O` (stereo not drawn), the activity change, negative = inhibition in assay [1] was -8.26%; in assay [2], -5.78%; in assay [3], -5.21%; in assay [4] it was -14.8%; in assay [5], -7.59%.

Consider `CN1CCN(C(=O)c2cc3n(n2)CC(C)(C(=O)NC2CCCCCC2)N(C)C3=O)CC1` (stereo not drawn), for which the activity change, negative = inhibition is 1.87% in assay [1]; 0% in assay [2]; 4.04% in assay [3]; 0.57% in assay [4]; -3.15% in assay [5].

(Values after PubChem BioAssay AID1745853 (National Center for Advancing Translational Sciences (NCATS), 2022).)
